Measured values from the supplement of paper PMC8728848.
Some of the results follow.

Tests used:
Assay in all cases: glycan array binding signal (z-score within array); higher = stronger binding
Details in all cases: glycan notation: IUPAC condensed, linker removed
[1] = biological target: Fuc(a1-2)[Gal(a1-3)]Gal(b1-4)[Fuc(a1-3)]GlcNAc(b1-3)GalNAc
Outline: (§1)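 From the Consortium for Functional Glycomics database, 3228 arrays were curated, keeping only those whose protein sequence was available. Binding is given as a within-array Z-score averaged across arrays sharing a protein sequence and across linkers. Negative Z-scores can be read as non-binding.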

[2] = biological target: Fuc(a1-2)[Gal(a1-4)]Gal(b1-4)GlcNAc
Outline: as §1

[3] = biological target: Fuc(a1-2)[GalNAc(a1-3)]Gal
Outline: as §1

[4] = biological target: Fuc(a1-2)[GalNAc(a1-3)]Gal(b1-3)GalNAc(a1-3)[Fuc(a1-2)]Gal(b1-4)GlcNAc
Outline: as §1

[5] = biological target: Fuc(a1-2)[GalNAc(a1-3)]Gal(b1-3)GalNAc(b1-3)Gal(a1-4)Gal(b1-4)Glc
Outline: as §1

[6] = biological target: Fuc(a1-2)[GalNAc(a1-3)]Gal(b1-3)GlcNAc
Outline: as §1

[7] = biological target: Fuc(a1-2)[GalNAc(a1-3)]Gal(b1-3)GlcNAc(b1-2)Man(a1-3)[Fuc(a1-2)[GalNAc(a1-3)]Gal(b1-3)GlcNAc(b1-2)Man(a1-6)]Man(b1-4)GlcNAc(b1-4)GlcNAc
Outline: as §1

[8] = biological target: Fuc(a1-2)[GalNAc(a1-3)]Gal(b1-3)GlcNAc(b1-2)Man(a1-3)[Fuc(a1-2)[GalNAc(a1-3)]Gal(b1-3)GlcNAc(b1-2)Man(a1-6)]Man(b1-4)GlcNAc(b1-4)[Fuc(a1-6)]GlcNAc
Outline: as §1

[9] = biological target: Fuc(a1-2)[GalNAc(a1-3)]Gal(b1-3)GlcNAc(b1-3)GalNAc
Outline: as §1

[10] = biological target: Fuc(a1-2)[GalNAc(a1-3)]Gal(b1-3)GlcNAc(b1-6)GalNAc
Outline: as §1

[11] = biological target: Fuc(a1-2)[GalNAc(a1-3)]Gal(b1-4)Glc
Outline: as §1

[12] = biological target: Fuc(a1-2)[GalNAc(a1-3)]Gal(b1-4)GlcNAc
Outline: as §1

[13] = biological target: Fuc(a1-2)[GalNAc(a1-3)]Gal(b1-4)GlcNAc(b1-2)Man
Outline: as §1

[14] = biological target: Fuc(a1-2)[GalNAc(a1-3)]Gal(b1-4)GlcNAc(b1-2)Man(a1-3)[Fuc(a1-2)[GalNAc(a1-3)]Gal(b1-4)GlcNAc(b1-2)Man(a1-6)]Man(b1-4)GlcNAc(b1-4)GlcNAc
Outline: as §1

[15] = biological target: Fuc(a1-2)[GalNAc(a1-3)]Gal(b1-4)GlcNAc(b1-2)Man(a1-3)[Fuc(a1-2)[GalNAc(a1-3)]Gal(b1-4)GlcNAc(b1-2)Man(a1-6)]Man(b1-4)GlcNAc(b1-4)[Fuc(a1-6)]GlcNAc
Outline: as §1

[16] = biological target: Fuc(a1-2)[GalNAc(a1-3)]Gal(b1-4)GlcNAc(b1-3)Gal(b1-4)GlcNAc
Outline: as §1

[17] = biological target: Fuc(a1-2)[GalNAc(a1-3)]Gal(b1-4)GlcNAc(b1-3)Gal(b1-4)GlcNAc(b1-3)Gal(b1-4)GlcNAc
Outline: as §1

[18] = biological target: Fuc(a1-2)[GalNAc(a1-3)]Gal(b1-4)GlcNAc(b1-3)GalNAc
Outline: as §1

[19] = biological target: Fuc(a1-2)[GalNAc(a1-3)]Gal(b1-4)GlcNAc(b1-3)[Fuc(a1-2)[GalNAc(a1-3)]Gal(b1-4)GlcNAc(b1-6)]GalNAc
Outline: as §1

[20] = biological target: Fuc(a1-2)[GalNAc(a1-3)]Gal(b1-4)GlcNAc(b1-6)GalNAc
Outline: as §1

[21] = biological target: Fuc(a1-2)[GalNAc(a1-3)]Gal(b1-4)[Fuc(a1-3)]GlcNAc
Outline: as §1

[22] = biological target: Fuc(a1-2)[GalNAc(a1-3)]Gal(b1-4)[Fuc(a1-3)]GlcNAc(b1-3)GalNAc
Outline: as §1

[23] = biological target: Fuc(a1-2)[GalNAc(a1-4)]Gal(b1-4)GlcNAc
Outline: as §1

[24] = biological target: Fuc(a1-2)[GalNAc(b1-3)]Gal
Outline: as §1

Fuc(a1-3)GlcNAc = biological target: Fuc(a1-3)GlcNAc
Outline: as §1

[25] = biological target: Fuc(a1-3)[Gal(b1-4)]Glc6S
Outline: as §1

[26] = biological target: Fuc(a1-3)[Gal(b1-4)]GlcNAc
Outline: as §1

[27] = biological target: Fuc(a1-3)[Gal(b1-4)]GlcNAc(b1-2)Man
Outline: as §1

[28] = biological target: Fuc(a1-3)[Gal(b1-4)]GlcNAc(b1-2)Man(a1-3)[Fuc(a1-3)[Gal(b1-4)]GlcNAc(b1-2)Man(a1-6)]Man(b1-4)GlcNAc(b1-4)GlcNAc
Outline: as §1

[29] = biological target: Fuc(a1-3)[Gal(b1-4)]GlcNAc(b1-2)Man(a1-3)[Fuc(a1-3)[Gal(b1-4)]GlcNAc(b1-2)Man(a1-6)]Man(b1-4)GlcNAc(b1-4)[Fuc(a1-6)]GlcNAc
Outline: as §1

[30] = biological target: Fuc(a1-3)[Gal(b1-4)]GlcNAc(b1-3)Gal(b1-3)[Fuc(a1-4)]GlcNAc
Outline: as §1

[31] = biological target: Fuc(a1-3)[Gal(b1-4)]GlcNAc(b1-3)Gal(b1-4)[Fuc(a1-3)]GlcNAc
Outline: as §1

[32] = biological target: Fuc(a1-3)[Gal(b1-4)]GlcNAc(b1-3)Gal(b1-4)[Fuc(a1-3)]GlcNAc(b1-3)Gal(b1-4)[Fuc(a1-3)]GlcNAc
Outline: as §1

[33] = biological target: Fuc(a1-3)[Gal(b1-4)]GlcNAc(b1-3)GalNAc
Outline: as §1

[34] = biological target: Fuc(a1-3)[Gal(b1-4)]GlcNAc(b1-6)GalNAc
Outline: as §1

[35] = biological target: Fuc(a1-3)[Gal(b1-4)]GlcNAc(b1-6)[Gal(b1-3)GlcNAc(b1-3)]Gal(b1-4)Glc
Outline: as §1

[36] = biological target: Fuc(a1-3)[Gal(b1-4)]GlcNAc6S
Outline: as §1

[37] = biological target: Fuc(a1-3)[Gal3S(b1-4)]Glc
Outline: as §1

B1: DC-ASGPR Long (Homo sapiens) (protein)
chain: MTRTYENFQYLENKVKVQGFKNGPLPLQSLLQRLRSGPCHLLLSLGLGLLLLVIICVVGFQNSKFQRDLVTLRTDFSNFTSNTVAEIQALTSQGSSLEETIASLKAEVEGFKQERQAGVSELQEHTTQKAHLGHCPHCPSVCVPVHSEMLLRVQQLVQDLKKLTCQVATLNNNASTEGTCCPVNWVEHQDSCYWFSHSGMSWAEAEKYCQLKNAHLVVINSREEQNFVQKYLGSAYTWMGLSDPEGAWKWVDGTDYATGFQNWKPGQPDDWQGHGLGGGEDCAHFHPDGGWNDDVCQRPYHWVCEAGLGQTSQESH
- glycan array binding signal (z-score) [1]: -0.285
- glycan array binding signal (z-score) [2]: -0.387
- glycan array binding signal (z-score) [3]: 0.334
- glycan array binding signal (z-score) [4]: -0.395
- glycan array binding signal (z-score) [5]: -0.348
- glycan array binding signal (z-score) [6]: -0.192
- glycan array binding signal (z-score) [7]: 1.58
- glycan array binding signal (z-score) [8]: 0.218
- glycan array binding signal (z-score) [9]: -0.324
- glycan array binding signal (z-score) [10]: 2.6
- glycan array binding signal (z-score) [11]: -0.051
- glycan array binding signal (z-score) [12]: 0.574
- glycan array binding signal (z-score) [13]: 0.051
- glycan array binding signal (z-score) [14]: 0.121
- glycan array binding signal (z-score) [15]: -0.197
- glycan array binding signal (z-score) [16]: -0.618
- glycan array binding signal (z-score) [17]: -0.36
- glycan array binding signal (z-score) [18]: -0.432
- glycan array binding signal (z-score) [19]: 0.501
- glycan array binding signal (z-score) [20]: 5.11
- glycan array binding signal (z-score) [21]: -0.338
- glycan array binding signal (z-score) [22]: -0.494
- glycan array binding signal (z-score) [23]: 3.67
- glycan array binding signal (z-score) [24]: 5.95
- glycan array binding signal (z-score) (Fuc(a1-3)GlcNAc): -0.379
- glycan array binding signal (z-score) [25]: -0.444
- glycan array binding signal (z-score) [26]: -0.353
- glycan array binding signal (z-score) [27]: -0.169
- glycan array binding signal (z-score) [28]: 0.96
- glycan array binding signal (z-score) [29]: -0.507
- glycan array binding signal (z-score) [30]: 0.105
- glycan array binding signal (z-score) [31]: -0.719
- glycan array binding signal (z-score) [32]: -0.281
- glycan array binding signal (z-score) [33]: -0.143
- glycan array binding signal (z-score) [34]: 0.785
- glycan array binding signal (z-score) [35]: 0.019
- glycan array binding signal (z-score) [36]: -0.22
- glycan array binding signal (z-score) [37]: 0.219
